Assay results as given in US12138316B2, “Anti-B7H3 antibody-drug conjugate and use thereof” (Duality Biologics (Suzhou) Co., Ltd., priority 2023, dated 2024).

Experiments:
[1] = target: T1, human B7H3 (Homo sapiens, UniProt Q5ZPR3); experiment: FACS binding to human B7H3-expressing cells MCF-7
T1 construct: MCF-7 cells expressing human full-length B7H3; host or cells: MCF-7
T1 sequence (Q5ZPR3 29-534): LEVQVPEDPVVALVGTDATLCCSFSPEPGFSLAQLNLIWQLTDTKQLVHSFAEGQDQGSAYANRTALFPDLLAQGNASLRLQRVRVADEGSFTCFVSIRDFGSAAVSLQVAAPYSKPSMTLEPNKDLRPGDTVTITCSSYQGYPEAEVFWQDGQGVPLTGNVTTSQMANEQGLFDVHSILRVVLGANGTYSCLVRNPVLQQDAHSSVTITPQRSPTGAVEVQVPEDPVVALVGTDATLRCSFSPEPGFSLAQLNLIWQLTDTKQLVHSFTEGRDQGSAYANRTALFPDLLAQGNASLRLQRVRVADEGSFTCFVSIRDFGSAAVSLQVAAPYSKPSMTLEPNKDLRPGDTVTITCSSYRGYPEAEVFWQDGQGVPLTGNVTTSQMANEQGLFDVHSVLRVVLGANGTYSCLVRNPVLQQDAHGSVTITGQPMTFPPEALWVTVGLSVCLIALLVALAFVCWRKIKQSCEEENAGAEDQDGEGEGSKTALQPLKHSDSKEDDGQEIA
Protocol: (§1) FACS was used to detect the binding of antibodies to human B7H3. This method allows quantitative analysis and identification of specific molecules expressed on the surface of living cells. Unlabeled cells were used as a control to set a threshold before the assay, and the percentage change for each group that exceeded the fluorescence intensity threshold was analyzed. MCF-7 cells expressing human full-length B7H3 (1×10^5 cells/well) were incubated with various concentrations of antibodies (3.16-fold serially diluted with 1×DPBS/1% BSA from 50 nM to 0.0005 nM) in a volume of 100 μL/well in a refrigerator set to 4° C. for 1 h. Anti-human B7H3 reference antibody enoblituzumab (MacroGeneics) was used as a positive control. Human IgG1 isotype antibody was used as a negative control. After washing the cells with 1×DPBS/1% BSA, Alexa 647 goat anti-human antibody (diluted in a 1:500 ratio in 1×DPBS/1% BSA) was added. The cells were incubated in a refrigerator set to 4° C. for 0.5 h in the dark. The mean fluorescence intensity (MFI) of the cells was measured by a flow cytometry and analyzed by FlowJo. EC50 values were calculated by four-parameter non-linear regression analysis using GraphPad Prism 7 software.

[2] = tested on: cynomolgus monkey B7H3; experiment: FACS binding to cynomolgus monkey B7H3-transfected stable cell pool
Protocol: as §1, with “to cynomolgus monkey” for “to human”, “B7H3. FlpinCHO” for “B7H3. This method allows quantitative analysis and identification of specific molecules expressed on the surface of living cells. Unlabeled”, “were transfected with cynomolgus monkey B7H3 (W3XX088-FlpinCHO.cProl.pool) (1×10^5 cells/well),” for “were used as a control to set a threshold before the assay,”, “the transfected” for “the percentage change for each group that exceeded the fluorescence intensity threshold was analyzed. MCF-7”, “cells” for “cells expressing human full-length B7H3 (1×10^5 cells/well)”

[3] = target: T2, human 4IgB7H3 (Homo sapiens, UniProt Q5ZPR3); experiment: Binding affinity for human 4IgB7H3 (SPR)
T2 construct: Uniprot ID: Q5ZPR3, amino acids 29-461; made in house; host or cells: Expi293F
T2 sequence (Q5ZPR3 29-461): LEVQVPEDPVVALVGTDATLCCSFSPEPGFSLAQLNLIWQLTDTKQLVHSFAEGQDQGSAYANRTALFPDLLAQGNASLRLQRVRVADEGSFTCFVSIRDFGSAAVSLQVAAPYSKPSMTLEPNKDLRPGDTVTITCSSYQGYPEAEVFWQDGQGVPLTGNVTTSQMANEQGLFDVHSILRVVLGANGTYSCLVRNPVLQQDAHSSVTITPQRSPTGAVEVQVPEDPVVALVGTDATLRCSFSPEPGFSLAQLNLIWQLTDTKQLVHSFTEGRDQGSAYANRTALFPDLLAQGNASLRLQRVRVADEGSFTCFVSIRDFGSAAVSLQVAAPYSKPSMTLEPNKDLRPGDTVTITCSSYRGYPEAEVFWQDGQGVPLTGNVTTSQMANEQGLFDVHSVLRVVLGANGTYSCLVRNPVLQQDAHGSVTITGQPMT
Protocol: (§2) The affinity of antibodies for human 4IgB7H3 was determined using surface plasmon resonance (SPR). The affinity of antibodies for human 4IgB7H3 was determined by Biacore 8K. An activator was prepared by mixing 400 mM EDC and 100 mM NHS (GE) immediately prior to injection into the channel. The CM5 sensor chip was activated for 420 seconds with the activator. Goat anti-human Fc IgG (30 μg/mL in 10 mM NaAc, pH 4.5) was then injected into the channel at a flow rate of 10 μL/min for 420 seconds. The chip was deactivated by 1 M ethanolamine hydrochloric acid. The antibodies diluted in running buffer (1×HBS-EP+) were injected into the channel at a flow rate of 10 μL/min for 30 seconds. Seven concentrations (100 nM, 50 nM, 25 nM, 12.5 nM, 6.25 nM, 2.125 nM, and 1.563 nM) of analyte human 4IgB7H3 were injected sequentially into the channel at a flow rate of 30 μL/min for an association phase of 180 seconds, followed by dissociation of 3600 seconds. Glycine (10 mM, pH 1.5) was injected as regeneration buffer after the dissociation phase.
(§3) The sensorgrams for the reference channel and the buffer channel were subtracted from the test sensorgrams. The experimental data were fitted with a 1:1 binding model. The molecular weight of the human 4IgB7H3 used in the calculation was 47.8 kDa.

[4] = target: T3, human 2IgB7H3 (Homo sapiens, UniProt Q5ZPR3); experiment: Binding affinity for human 2IgB7H3 (SPR)
T3 construct: His tag; purchased ACROBiosystems B73-H52E2
T3 sequence (Q5ZPR3 29-316 isoform Q5ZPR3-2 limits assumed): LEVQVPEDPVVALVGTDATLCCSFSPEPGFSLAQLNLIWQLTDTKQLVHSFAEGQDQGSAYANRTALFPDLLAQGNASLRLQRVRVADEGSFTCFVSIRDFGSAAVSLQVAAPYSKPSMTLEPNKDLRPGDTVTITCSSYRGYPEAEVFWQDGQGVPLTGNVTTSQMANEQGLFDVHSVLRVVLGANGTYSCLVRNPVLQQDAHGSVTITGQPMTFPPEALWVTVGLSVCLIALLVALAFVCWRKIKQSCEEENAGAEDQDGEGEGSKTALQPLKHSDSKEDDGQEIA
Protocol: The affinity of antibodies for human 2IgB7H3 was determined using surface plasmon resonance (SPR). The affinity of antibodies for human 2IgB7H3 was determined by Biacore 8K. An activator was prepared by mixing 400 mM EDC and 100 mM NHS (GE) immediately prior to injection into the channel. The CM5 sensor chip was activated for 420 seconds with the activator. Goat anti-human Fc IgG (30 μg/mL in 10 mM NaAc, pH 4.5) was then injected into the channel at a flow rate of 10 μL/min for 420 seconds. The chip was deactivated by 1 M ethanolamine hydrochloric acid. The antibodies diluted in running buffer (1×HBS-EP+) were injected into the channel at a flow rate of 10 μL/min for 30 seconds. Seven concentrations (500 nM, 250 nM, 125 nM, 62.5 nM, 31.25 nM, 15.625 nM, and 7.813 nM) of analyte human 2IgB7H3 were injected sequentially into the channel at a flow rate of 30 μL/min for an association phase of 120 seconds, followed by dissociation of 300 seconds. Glycine (10 mM, pH 1.5) was injected as regeneration buffer after the dissociation phase.
The sensorgrams for the reference channel and the buffer channel were subtracted from the test sensorgrams. The experimental data were fitted with a 1:1 binding model. The molecular weight of the human 2IgB7H3 used in the calculation was 25.2 kDa.

[5] = tested on: cynomolgus monkey B7H3; experiment: Binding affinity for cynomolgus monkey B7H3 (SPR)
Protocol: as §2, with “cynomolgus monkey B7H3” for “human 4IgB7H3”, “Seven concentrations (100 nM, 50 nM, 25 nM, 12.5 nM, 6.25 nM, 2.125 nM, and 1.563 nM) of analyte human 4IgB7H3 were injected sequentially into the channel at a flow rate of 30 μL/min for an association phase of 180 seconds, followed by dissociation of 3600 seconds.” left out
as §3, with “data for 6 analyte concentrations (50 nM, 25 nM, 12.5 nM, 6.25 nM, 3.125 nM, and 1.563 nM)” for “data”, “cynomolgus monkey B7H3” for “human 4IgB7H3”, “49” for “47.8”

[6] = tested on: human B7H3-expressing cells MCF-7; experiment: Internalization test (HCS) in MCF-7 cells; assay type: cell-based
Protocol: Antibody internalization was determined by operetta CLS (PerkinElmer), a high-content imaging and analysis system that can collect and analyze images of samples at high speed and high sensitivity. MCF-7 cells expressing human full-length B7H3 (1.5×10^4 cells/well) were seeded into a 96-well clear bottom black plate pre-coated with 8 μg/mL poly-D-lysine. After incubation in an incubator set to 37° C., 5% CO2 overnight, various concentrations of the antibodies (3.16-fold serially diluted with 1×DPBS/1% BSA from 50 nM to 0.0005 nM) were incubated in a volume of 100 μL/well in a refrigerator set to 4° C. for 2 h. Anti-human B7H3 reference antibody enoblituzumab (MacroGeneics) was used as a positive control. Human IgG1 isotype antibody was used as a negative control. After washing the cells with 1×DPBS/1% BSA, Alexa 647 goat anti-human antibody (diluted in a 1:500 ratio in 1×DPBS/1% BSA) was added. The cells were incubated in a refrigerator set to 4° C. for 1 h in the dark. The cells were then washed once and resuspended in 1×DPBS/1% BSA at 37° C. for 2 h. […] The mean fluorescence intensity (MFI) of the cells was measured and analyzed by operetta CLS. EC50 values were calculated by four-parameter non-linear regression analysis using GraphPad Prism 7 software.

B1: W301088-1.145.16-xIgG1KV320: chimeric anti-B7H3 human IgG1 LALA antibody, heavy chain SEQ ID NO: 14, light chain SEQ ID NO: 15 (antibody)
heavy: DVQLQESGPGLVKPSQSLSLTCTVTDYSITGDYAWNWIRQFPGNKLEWMGYISYSGSTSYNPSLQSRISITRDTSKNQFFLQLNSVTSEDTATYFCARSLGRRWYFVVWGAGTTVTVSAASTKGPSVFPLAPSSKSTSGGTAALGCLVKDYFPEPVTVSWNSGALTSGVHTFPAVLQSSGLYSLSSVVTVPSSSLGTQTYICNVNHKPSNTKVDKRV[not shown - human IgG1 Fc with changes]
light: DIVMTQSPSSLAMSVGQKVTMSCKSSQSLLNSSNQKNYLAWYQQKPGQSPKLLIYFASTRESGVPDRFIGSGSGTDFTLTISSVQAEDLTDYFCQQHYSAPWTFGGGTKLEIKRTVAAPSVFIFPPSDEQLKSGTASVVCLLNNFYPREAKVQWKVDNALQSGNSQESVTEQDSKDSTYSLSSTLTLSKADYEKHKVYACEVTHQGLSSPVTKSFNRGEC
[1]
  Maximum MFI: 19800
[2]
  Maximum MFI: 67100
[3]
  ka: 657000 M⁻¹ s⁻¹
  kd (dissociation rate constant): 3.39e-05 s⁻¹
[4]
  ka: 235000 M⁻¹ s⁻¹
  kd (dissociation rate constant): 0.0136 s⁻¹
[5]
  ka: 521000 M⁻¹ s⁻¹
  kd (dissociation rate constant): 2.94e-05 s⁻¹
[6]
  Antibody internalization Maximum MFI: 57180
